Results on 73 sequences are retold here after article PMC10726135.

This is one part of the list. At the low end of the ranking, values are background and their order means little. Measured with an extract: partners may take part in the binding.

The target in the test is T1, HNF4alpha2 (COS-7 nuclear extract) (UniProt P41235).
T1 sequence: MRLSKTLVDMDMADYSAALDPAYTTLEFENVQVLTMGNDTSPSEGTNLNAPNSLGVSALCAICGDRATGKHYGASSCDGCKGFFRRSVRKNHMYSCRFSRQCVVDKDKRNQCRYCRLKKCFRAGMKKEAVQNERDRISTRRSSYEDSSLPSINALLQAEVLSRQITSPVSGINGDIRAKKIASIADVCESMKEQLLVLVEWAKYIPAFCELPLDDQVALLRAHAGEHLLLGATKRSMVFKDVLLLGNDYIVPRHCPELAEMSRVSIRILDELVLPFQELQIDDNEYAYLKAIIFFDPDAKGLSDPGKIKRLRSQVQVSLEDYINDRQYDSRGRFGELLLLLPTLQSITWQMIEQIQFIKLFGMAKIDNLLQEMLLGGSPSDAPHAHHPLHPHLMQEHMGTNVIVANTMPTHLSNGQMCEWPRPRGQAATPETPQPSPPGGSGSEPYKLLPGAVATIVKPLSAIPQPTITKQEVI
Description: protein-binding microarray. Particulars: COS-7 nuclear extract on double-stranded Agilent 4x180k PBM; binding buffer, salt, pH and temperature not given; high values mean tight binding; double strand, one strand shown; sequences stand for … in …GCCTAGGGAGATTAGAGTATCGGTCGA
Regarding TCCCAGCCCCTAGCCCTAAGCAGGCACATT, the binding signal (log2 normalized intensity) worked out at 2.47.

Turning to TTCTGATTTGATAAGATGTGTAAAACACAA, the binding signal (log2 normalized intensity) amounted to 1.1.

For the sequence TTTGGGCATACAAAACAACCACTCTTATCA, the binding signal (log2 normalized intensity) was -1.11.

In the case of TTGGTCTGCTGAGTCTCATGATTAGATTGA, the binding signal (log2 normalized intensity) stood at 0.746.

Take AAGGCTGTTTGCACCGTGTGCTTTGTAGCA: the binding signal (log2 normalized intensity) amounted to 0.242.

ACTTTGACCTAGAAGCCAGGGACCAGGAAG: the binding signal (log2 normalized intensity) is -1.2.

Consider TTTCAGTGCCCTTTGAGATTTGCATTCATG, for which the binding signal (log2 normalized intensity) was determined as 1.92.

Turning to AGAGGGCCTCTAGCCCAATATTTGCTTACC, the binding signal (log2 normalized intensity) is -1.14.

For the sequence ATCAGAGATGGATTACATGGGAGATAGAGC, the binding signal (log2 normalized intensity) is -1.16.

For GATAAGGGCCACAGATGGCCTCACTCGGTG, the binding signal (log2 normalized intensity) is -1.22.

On to AATTTGTCTAGCGCAAATGATCAAAGGTTG, for which the binding signal (log2 normalized intensity) came to 3.72.

Turning to ATCTGCAAATGCTTCTCCTGGCTTTAGATA, the binding signal (log2 normalized intensity) is -0.74.

In the case of GCTGAGGCCCAGGAAGCTCCAGCGGGGTTT, the binding signal (log2 normalized intensity) is -1.18.

Take CTCTGGCCACTGCAGGGAGGACAGACTCTG: the binding signal (log2 normalized intensity) is -0.749.

As for TATCAGCTTTGAGACACCTGGCCAAGTACA, the binding signal (log2 normalized intensity) is -1.09.

CACATTCCTAGACCTTTGACCTTTATACCT: the binding signal (log2 normalized intensity) is 7.82.

In the case of TCTCAGGGTCCACATTCCAGGAATATTCAG, the binding signal (log2 normalized intensity) was 0.532.

TCCAAAGTTCTGAATGAGCAGACTGAGTTG: the binding signal (log2 normalized intensity) turned out to be 0.444.

With ATATGAAAGAGCCATGGACTGCTGACCTTT, the binding signal (log2 normalized intensity) was 6.32.

For TCCTCCCCTCCCCTCCCCCCACTCAAAATA, the binding signal (log2 normalized intensity) is 6.79.

Turning to TTGATGCCTGTTGCTCAGAATTACTGACTC, the binding signal (log2 normalized intensity) was found to be 0.588.

As for GAACTGAGTTTAGAATTTGAACTATGGTCA, the binding signal (log2 normalized intensity) came to 4.54.

As to CATGGGCTGTCACCTTTACCCCCACTCTCC, the binding signal (log2 normalized intensity) was 4.46.

With GCTCTGGGCTAGTCCCTGAGTATTATCTTT, the binding signal (log2 normalized intensity) was 0.693.

For CTTATACTTGAGGTATGATGCATCCTGAGG, the binding signal (log2 normalized intensity) turned out to be 1.03.

Regarding TCTAACAGCTGATGAGGCACCAACACTTCC, the binding signal (log2 normalized intensity) was -1.1.

With TAAGTGACCCAGGAGGAGAAGGGTGGGAAT, the binding signal (log2 normalized intensity) is -1.12.

On to AAGACTTTGGACTTTGGACCTGAGGCTTTT, for which the binding signal (log2 normalized intensity) stood at 9.84.

For the sequence CCTATGAGCCAAACACCATGCTAGGCTTCT, the binding signal (log2 normalized intensity) is -1.04.

With AGACATCACCTGCTCATTGACCCTTAGGCC, the binding signal (log2 normalized intensity) came to 3.72.

ACCTTTGCCTTCTTGACATCTCTCTCTGCA: the binding signal (log2 normalized intensity) worked out at 1.17.

ATTGAGAAAGATTAAGAGGCTACAACCAGA: the binding signal (log2 normalized intensity) was -1.

For the sequence TGACAAAATAACGAAGGCATTCTTAACAAA, the binding signal (log2 normalized intensity) is -1.07.

For the sequence ACAATTTGAGGGGTCAAGAAGACCTGGGCT, the binding signal (log2 normalized intensity) is -1.08.

Turning to TACAAAGGTGACTTGCCCAGACACACCTGC, the binding signal (log2 normalized intensity) was -1.14.

As to TGGATGGATCCGCAGCCAGGGCTGTTTTCT, the binding signal (log2 normalized intensity) was -1.12.

Turning to CCTCCCCCCAGTTCCCTGGGTCGCCAAGCC, the binding signal (log2 normalized intensity) is 3.55.

Consider GGGAGAGGAGTTTGTTCACCCACCAGAGGG, for which the binding signal (log2 normalized intensity) is -1.08.

For the sequence GGTCCTCTGCTGCCCTCTAGGGTTGCCCAG, the binding signal (log2 normalized intensity) was 0.95.

In the case of AGTCCCTGTCCCTTCTTGGCAAGTTAATGT, the binding signal (log2 normalized intensity) worked out at 1.94.

On to AGGAGGGAGGAGCATTTCACAGAAATTTTT, for which the binding signal (log2 normalized intensity) is -1.11.

With TCTTCTTAGCCTTTGAACCCCACACCTCCC, the binding signal (log2 normalized intensity) was found to be 5.02.

As for AAATCCCAAGCAGTGATATTCTCTCGTCAC, the binding signal (log2 normalized intensity) is -0.223.

As to TCCTCTCCCAGCCCCTAGCCCTAAGCAGGC, the binding signal (log2 normalized intensity) stood at 2.79.

Regarding CCACAGAAAAGGCAGCAGCTTGGAATGTCA, the binding signal (log2 normalized intensity) was -1.31.

With CAATAAGGACTTTGGACCGTCTTGTGGATC, the binding signal (log2 normalized intensity) came to 5.92.

Consider TTTGTACACACAGCACTGCAAACAGTGAGC, for which the binding signal (log2 normalized intensity) is -1.13.

In the case of TGGTTTTATCAGCTGAGGCCATTGCCTTTC, the binding signal (log2 normalized intensity) worked out at 0.817.

As to GGGAGGAGGGGGGAGGGTCGGCAACGGTGA, the binding signal (log2 normalized intensity) was -0.986.

As to GTCAAACCTTTGACCCTTTATAATCCCCTA, the binding signal (log2 normalized intensity) was found to be 4.25.

Consider TTACTGAACGCTGCGCATACCATATGCATT, for which the binding signal (log2 normalized intensity) is -1.16.

Consider GTGCCTGTGCATACCTGGAATTGTACACAT, for which the binding signal (log2 normalized intensity) was determined as 0.0805.

As to ATCTTATCAGCAAGGGCATTTGCGTAGGCT, the binding signal (log2 normalized intensity) is -0.0469.

As for GGGCGAAAAAGACGCGGTCTCAGTTAACGG, the binding signal (log2 normalized intensity) is -1.19.

As for GAAAGAGACCTTTGACATCACCTAACTTGT, the binding signal (log2 normalized intensity) is 1.8.

For the sequence GGTACAGCAGCATAAAGGACTTTCAACCCT, the binding signal (log2 normalized intensity) is 4.04.

For the sequence GATCTTTGACCGCTGCCTCCCACCCCCACG, the binding signal (log2 normalized intensity) is 5.37.

GTCCTCACCCAGAACTTTGACCGTTTGATT: the binding signal (log2 normalized intensity) was determined as 3.5.

As for TGGGCCTTCAGCTTGAAAACACAACAAAAG, the binding signal (log2 normalized intensity) is -1.19.

In the case of TGTTAGCAGAGCAATTACTCATGTCCTCAG, the binding signal (log2 normalized intensity) is -0.707.

For TATTTTATAGAAAAGGAAAGTGAGGCCTGG, the binding signal (log2 normalized intensity) was 0.051.

Consider AGGATTATAGTTTATCTACCTTTGTACCTT, for which the binding signal (log2 normalized intensity) worked out at 5.34.

TTTAGCAGCACCATCCTACAGGGTATGAAT: the binding signal (log2 normalized intensity) is -1.04.

As to TTATCTTCAGGTTTGCTAATATCTGATGTT, the binding signal (log2 normalized intensity) is 1.19.

For CCAAGGCGTATGAAGCTTTGACCCTGTTTT, the binding signal (log2 normalized intensity) stood at 3.22.

Consider GAGGCCATATCACAGGAGAAAACAGCACAA, for which the binding signal (log2 normalized intensity) was -1.09.

Consider TGGTTCACACCCCACGTACATTGCACCCTC, for which the binding signal (log2 normalized intensity) stood at 4.17.

In the case of TCCATAATCCCCGAATGTCCAGACTGTGCA, the binding signal (log2 normalized intensity) was 2.03.

With ATACACTTTCCGTACTTTTCATCTGATCAG, the binding signal (log2 normalized intensity) stood at 1.24.

Regarding ACACTCATCAGGTGAGATAAGAAGACTCCA, the binding signal (log2 normalized intensity) is -1.16.

Consider GGATAAGCATGGAGATGAGTGGGTTCACTT, for which the binding signal (log2 normalized intensity) stood at 1.24.

Turning to TGGGCCACCTGCCATCATTTTCTGACCAGG, the binding signal (log2 normalized intensity) is -0.57.

GTCTTAATAAGATAATAAGTGACCCAGGAG: the binding signal (log2 normalized intensity) was found to be 1.64.
